# The supplement of paper PMC8728848
# The list shows a part of the results.
# B1: PRKCE (Homo sapiens), Q02156 (protein)
# chain: MVVFNGLLKIKICEAVSLKPTAWSLRHAVGPRPQTFLLDPYIALNVDDSRIGQTATKQKTNSPAWHDEFVTDVCNGRKIELAVFHDAPIGYDDFVANCTIQFEELLQNGSRHFEDWIDLEPEGRVYVIIDLSGSSGEAPKDNEERVFRERMRPRKRQGAVRRRVHQVNGHKFMATYLRQPTYCSHCRDFIWGVIGKQGYQCQVCTCVVHKRCHELIITKCAGLKKQETPDQVGSQRFSVNMPHKFGIHNYKVPTFCDHCGSLLWGLLRQGLQCKVCKMNVHRRCETNVAPNCGVDARGIAKVLADLGVTPDKITNSGQRRKKLIAGAESPQPASGSSPSEEDRSKSAPTSPCDQEIKELENNIRKALSFDNRGEEHRAASSPDGQLMSPGENGEVRQGQAKRLGLDEFNFIKVLGKGSFGKVMLAELKGKDEVYAVKVLKKDVILQDDDVDCTMTEKRILALARKHPYLTQLYCCFQTKDRLFFVMEYVNGGDLMFQIQRSRKFDEPRSRFYAAEVTSALMFLHQHGVIYRDLKLDNILLDAEGHCKLADFGMCKEGILNGVTTTTFCGTPDYIAPEILQELEYGPSVDWWALGVLMYEMMAGQPPFEADNEDDLFESILHDDVLYPVWLSKEAVSILKAFMTKNPHKRLGCVASQNGEDAIKQHPFFKEIDWVLLEQKKIKPPFKPRIKTKRDVNNFDQDFTREEPVLTLVDEAIVKQINQEEFKGFSYFGEDLMP
# Columns and labels:
# Assay in all cases: glycan array binding signal (z-score within array); higher = stronger binding
# Conditions in all cases: glycan notation: IUPAC condensed, linker removed
# [1] = molecular target: Neu5Ac(a2-3)Gal(b1-3)[Neu5Ac(a2-6)]GlcNAc(b1-3)[Fuc(a1-3)[Gal(b1-4)]GlcNAc(b1-6)]Gal(b1-4)Glc
# Method in brief: (§1)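 Glycan array binding is given as a within-array Z-score, which can be read as non-binding when negative. The arrays, 3228 of them, came from the Consortium for Functional Glycomics database and were retained only where the protein sequence was available. Z-scores were averaged across arrays of the same protein sequence at different concentrations or buffers and across linkers.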
# Neu5Ac(a2-3)Gal(b1-4)Glc = molecular target: Neu5Ac(a2-3)Gal(b1-4)Glc
# Method in brief: as §1
# [2] = molecular target: Neu5Ac(a2-3)Gal(b1-4)GlcNAc
# Method in brief: as §1
# [3] = molecular target: Neu5Ac(a2-3)Gal(b1-4)GlcNAc(b1-2)Man
# Method in brief: as §1
# [4] = molecular target: Neu5Ac(a2-3)Gal(b1-4)GlcNAc(b1-2)Man(a1-3)[GlcNAc(b1-2)Man(b1-4)GlcNAc(b1-2)Man(a1-6)]Man(b1-4)GlcNAc(b1-4)GlcNAc
# Method in brief: as §1
# [5] = molecular target: Neu5Ac(a2-3)Gal(b1-4)GlcNAc(b1-2)Man(a1-3)[Neu5Ac(a2-3)Gal(b1-4)GlcNAc(b1-2)Man(a1-6)]Man(b1-4)GlcNAc(b1-4)[Fuc(a1-6)]GlcNAc
# Method in brief: as §1
# [6] = molecular target: Neu5Ac(a2-3)Gal(b1-4)GlcNAc(b1-2)Man(a1-3)[Neu5Ac(a2-6)Gal(b1-4)GlcNAc(b1-2)Man(a1-6)]Man(b1-4)GlcNAc(b1-4)GlcNAc
# Method in brief: as §1
# [7] = molecular target: Neu5Ac(a2-3)Gal(b1-4)GlcNAc(b1-2)[Neu5Ac(a2-3)Gal(b1-4)GlcNAc(b1-6)]Man(a1-6)[Neu5Ac(a2-3)Gal(b1-4)GlcNAc(b1-2)Man(a1-3)]Man(b1-4)GlcNAc(b1-4)GlcNAc
# Method in brief: as §1
# [8] = molecular target: Neu5Ac(a2-3)Gal(b1-4)GlcNAc(b1-3)Gal
# Method in brief: as §1
# [9] = molecular target: Neu5Ac(a2-3)Gal(b1-4)GlcNAc(b1-3)Gal(b1-3)GlcNAc
# Method in brief: as §1
# [10] = molecular target: Neu5Ac(a2-3)Gal(b1-4)GlcNAc(b1-3)Gal(b1-4)GlcNAc
# Method in brief: as §1
# [11] = molecular target: Neu5Ac(a2-3)Gal(b1-4)GlcNAc(b1-3)Gal(b1-4)GlcNAc(b1-3)Gal(b1-4)GlcNAc
# Method in brief: as §1
# [12] = molecular target: Neu5Ac(a2-3)Gal(b1-4)GlcNAc(b1-3)Gal(b1-4)[Fuc(a1-3)]GlcNAc
# Method in brief: as §1
# [13] = molecular target: Neu5Ac(a2-3)Gal(b1-4)GlcNAc(b1-3)GalNAc
# Method in brief: as §1
# [14] = molecular target: Neu5Ac(a2-3)Gal(b1-4)GlcNAc(b1-3)[Neu5Ac(a2-3)Gal(b1-4)GlcNAc(b1-6)]GalNAc
# Method in brief: as §1
# [15] = molecular target: Neu5Ac(a2-3)Gal(b1-4)GlcNAc(b1-6)GalNAc
# Method in brief: as §1
# [16] = molecular target: Neu5Ac(a2-3)Gal(b1-4)GlcNAc(b1-6)[Gal(b1-3)]GalNAc
# Method in brief: as §1
# [17] = molecular target: Neu5Ac(a2-3)Gal(b1-4)GlcNAc(b1-6)[Neu5Ac(a2-3)Gal(b1-3)]GalNAc
# Method in brief: as §1
# [18] = molecular target: Neu5Ac(a2-3)Gal(b1-4)GlcNAc6S
# Method in brief: as §1
# [19] = molecular target: Neu5Ac(a2-3)Gal(b1-4)[Fuc(a1-3)]GlcNAc
# Method in brief: as §1
# [20] = molecular target: Neu5Ac(a2-3)Gal(b1-4)[Fuc(a1-3)]GlcNAc(b1-3)Gal
# Method in brief: as §1
# [21] = molecular target: Neu5Ac(a2-3)Gal(b1-4)[Fuc(a1-3)]GlcNAc(b1-3)Gal(b1-4)GlcNAc
# Method in brief: as §1
# [22] = molecular target: Neu5Ac(a2-3)Gal(b1-4)[Fuc(a1-3)]GlcNAc(b1-3)Gal(b1-4)[Fuc(a1-3)]GlcNAc(b1-3)Gal(b1-4)[Fuc(a1-3)]GlcNAc
# Method in brief: as §1
# [23] = molecular target: Neu5Ac(a2-3)Gal(b1-4)[Fuc(a1-3)]GlcNAc(b1-3)GalNAc
# Method in brief: as §1
# [24] = molecular target: Neu5Ac(a2-3)Gal(b1-4)[Fuc(a1-3)]GlcNAc(b1-6)[Gal(b1-3)]GalNAc
# Method in brief: as §1
# [25] = molecular target: Neu5Ac(a2-3)Gal(b1-4)[Fuc(a1-3)]GlcNAc6S
# Method in brief: as §1
# [26] = molecular target: Neu5Ac(a2-3)Gal6S(b1-4)GlcNAc
# Method in brief: as §1
# [27] = molecular target: Neu5Ac(a2-3)Gal6S(b1-4)[Fuc(a1-3)]GlcNAc
# Method in brief: as §1
# Neu5Ac(a2-3)GalNAc = molecular target: Neu5Ac(a2-3)GalNAc
# Method in brief: as §1
# [28] = molecular target: Neu5Ac(a2-3)GalNAc(b1-4)GlcNAc
# Method in brief: as §1
binder,measurement,setting,value
B1,glycan array binding signal (z-score),[1],-0.081
same,glycan array binding signal (z-score),Neu5Ac(a2-3)Gal(b1-4)Glc,-0.32
same,glycan array binding signal (z-score),[2],-0.379
same,glycan array binding signal (z-score),[3],0.71
same,glycan array binding signal (z-score),[4],1.1
same,glycan array binding signal (z-score),[5],-0.386
same,glycan array binding signal (z-score),[6],2.01
same,glycan array binding signal (z-score),[7],0.336
same,glycan array binding signal (z-score),[8],-0.106
same,glycan array binding signal (z-score),[9],-0.392
same,glycan array binding signal (z-score),[10],-0.338
same,glycan array binding signal (z-score),[11],-0.293
same,glycan array binding signal (z-score),[12],-0.192
same,glycan array binding signal (z-score),[13],-0.405
same,glycan array binding signal (z-score),[14],-0.354
same,glycan array binding signal (z-score),[15],-0.375
same,glycan array binding signal (z-score),[16],-0.367
same,glycan array binding signal (z-score),[17],-0.432
same,glycan array binding signal (z-score),[18],0.349
same,glycan array binding signal (z-score),[19],-0.351
same,glycan array binding signal (z-score),[20],-0.258
same,glycan array binding signal (z-score),[21],-0.344
same,glycan array binding signal (z-score),[22],-0.381
same,glycan array binding signal (z-score),[23],-0.385
same,glycan array binding signal (z-score),[24],-0.215
same,glycan array binding signal (z-score),[25],-0.2
same,glycan array binding signal (z-score),[26],-0.365
same,glycan array binding signal (z-score),[27],-0.299
same,glycan array binding signal (z-score),Neu5Ac(a2-3)GalNAc,-0.335
same,glycan array binding signal (z-score),[28],-0.336
